In the supplement of paper PMC10126150 one finds switch fluorescence ratio data, which are given here for 67 sequences.

Sequences with one replicate were seen in a single cluster, so their values are uncertain.
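Note: ATP exposure 15 min at 22 °C before imaging.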

The series has as its system ATP. As to the kind of experiment: switch fluorescence ratio, 500 uM ATP over buffer (Cy3 cluster intensity, sum of 5 cycles each) (fold (ratio)); higher = stronger signal-on switching upon ATP binding; sequences stand for … in TCGTCGGCAGCGTCAGATGTGTATAAGAGACAGTTTTTTTTTTTTTTTTTTTTTTTTT…TC. Conditions: aptamer strand: ATP DNA aptamer (quencher-CACCTGGGGGAGTATTGCGGAGGAAGG + anchor), 100 nM annealed; ATP concentration: 500 uM; one replicate. A digest of the protocol:
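Five buffer/ATP imaging cycles were run on Cy3-labelled switching-strand clusters on a modified Illumina MiSeq flow-cell, with NaOH stripping and re-annealing between cycles. In each cycle, clusters annealed to 100 nM quencher-labelled ATP aptamer were imaged in selection buffer, then after 15 min with 500 uM ATP at 22 °C. Per cluster, the fluorescence ratio is summed target-cycle over summed buffer-cycle Cy3 intensity, averaged per switch-domain sequence. Only clusters within 100-1000 RFU were kept.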
Consider CCGTTAGCAG, for which the switch fluorescence ratio turned out to be 2.64.

Turning to CCGGATATCG, the switch fluorescence ratio came out at 0.997.

Take GGGCCGGCCG: the switch fluorescence ratio worked out at 1.01.

Regarding GAGAATTATC, the switch fluorescence ratio was 0.979.

In the case of GAGGTATGTC, the switch fluorescence ratio was found to be 1.04.

With TATGGGCGAG, the switch fluorescence ratio was 0.982.

On to CGCCGGGGTT, for which the switch fluorescence ratio was found to be 1.2.

As for ATTGGCGCAC, the switch fluorescence ratio was 1.09.

With TGTCGCTCTT, the switch fluorescence ratio came out at 0.988.

In the case of GCTAGTTCTC, the switch fluorescence ratio turned out to be 0.969.

Regarding GGGCGTAAAT, the switch fluorescence ratio came to 0.998.

In the case of TATGCCCATA, the switch fluorescence ratio was 1.02.

For AATAGTCTTC, the switch fluorescence ratio came out at 1.03.

For the sequence GTCAGGTTTC, the switch fluorescence ratio turned out to be 1.03.

GCCACTTGGC: the switch fluorescence ratio is 0.861.

GACTTTTGAC: the switch fluorescence ratio was found to be 1.02.

Turning to TGCGTTAGGA, the switch fluorescence ratio amounted to 1.01.

As to CAAACAAGGC, the switch fluorescence ratio is 1.01.

Take TTCGATGGCA: the switch fluorescence ratio came out at 1.09.

GTGTTTGGAC: the switch fluorescence ratio was 1.

Regarding CAAGGAATCT, the switch fluorescence ratio was determined as 1.02.

Take TGGTGTTTGA: the switch fluorescence ratio came out at 0.955.

On to ATAATCCTG, for which the switch fluorescence ratio worked out at 1.01.

TGAGAAATCT: the switch fluorescence ratio was 1.07.

As for ATGATCGACC, the switch fluorescence ratio stood at 1.

Turning to GGGTGCCGCT, the switch fluorescence ratio was determined as 1.04.

In the case of AATGTAATAC, the switch fluorescence ratio is 3.82.

As for CGAACAAATA, the switch fluorescence ratio stood at 0.985.

Take AAATGATCTC: the switch fluorescence ratio is 0.958.

Turning to AGTTGTCCCA, the switch fluorescence ratio amounted to 1.04.

Take GTATGAACT: the switch fluorescence ratio worked out at 0.984.

As to AACCTAAGT, the switch fluorescence ratio came to 1.01.

As to GATGAAAAAC, the switch fluorescence ratio is 1.52.

Take GCTGGCTATG: the switch fluorescence ratio came to 0.971.

Regarding TACTTTGGCG, the switch fluorescence ratio worked out at 0.959.

TTAGTCCCTT: the switch fluorescence ratio came out at 0.989.

As to CCCCTGTTGG, the switch fluorescence ratio amounted to 1.2.

In the case of GATTGACATG, the switch fluorescence ratio turned out to be 1.12.

As for TGAGAACC, the switch fluorescence ratio came to 0.95.

As for ATTTTACGTC, the switch fluorescence ratio was determined as 1.07.

On to CATGCAGCCC, for which the switch fluorescence ratio stood at 1.82.

With TGGATCGATT, the switch fluorescence ratio worked out at 0.977.

Regarding TTCAGCAGTA, the switch fluorescence ratio came to 1.06.

As for GATGTCCGAC, the switch fluorescence ratio stood at 1.06.

For TTGTGGCC, the switch fluorescence ratio came out at 0.973.

Take AAGGTATCGT: the switch fluorescence ratio turned out to be 0.972.

Regarding GGAGGCTGCA, the switch fluorescence ratio came out at 0.939.

For the sequence GGCAAAATGT, the switch fluorescence ratio was determined as 0.972.

In the case of ATGATGTTCC, the switch fluorescence ratio worked out at 1.04.

For GTGGGCCTGG, the switch fluorescence ratio amounted to 0.977.

Consider TCCTACTGGA, for which the switch fluorescence ratio amounted to 0.924.

In the case of TCTGGGCGCA, the switch fluorescence ratio was found to be 1.

As to CTGGTCGCCT, the switch fluorescence ratio is 0.975.

Regarding GGTGAGGCGG, the switch fluorescence ratio is 0.968.

On to CTCAGGTTAT, for which the switch fluorescence ratio stood at 1.01.

As for AGGGTATTGA, the switch fluorescence ratio was 1.01.

Consider GATCAATGTC, for which the switch fluorescence ratio worked out at 0.995.

As for TCCCTTTGTT, the switch fluorescence ratio was 0.995.

With TTACTGCGAT, the switch fluorescence ratio was 1.1.

Take AATTCCAGCA: the switch fluorescence ratio turned out to be 1.05.

Regarding TTTTGATAAA, the switch fluorescence ratio was 0.971.

On to ATTGGGTACT, for which the switch fluorescence ratio was 0.95.

Turning to CGCTAGAGTG, the switch fluorescence ratio stood at 1.02.

As for ACTGTTTGCA, the switch fluorescence ratio was 0.99.

GCAATGGGGG: the switch fluorescence ratio was found to be 1.32.

With GCACGGTTTC, the switch fluorescence ratio came to 1.01.

As for AAGCATCGAG, the switch fluorescence ratio came out at 1.01.
